These are yes or no findings as the source states them, for the method shown. In cells and extracts the contact can be indirect. Some binding calls cover weakened binding; strength is not graded here. For some assays here: Where a sequence is shown, tags or fusion partners need not be part of it.
How the values were obtained:
[1] = target: c-Jun activation domain-binding protein-1 (Jab1/CSN5), endogenous in mouse brain (mouse (endogenous in mouse brain)) (UniProt O35864); assay: co-IP; WT and MsrA KO mouse brain extracts (500 µg protein), IP with anti-Jab1 antibody; Western blot with anti-Cul-1
[2] = target: Cyclin-dependent kinase inhibitor 1B (P27), endogenous in mouse brain (mouse (endogenous in mouse brain)) (UniProt P46414); assay: co-IP; WT mouse brain extract (500 µg protein), IP with anti-P27 antibody; Western blot with anti-Jab1
[3] = target: T1, Methionine sulfoxide reductase A (MsrA), endogenous in mouse brain (mouse (endogenous in mouse brain)) (UniProt Q9D6Y7); assay: co-IP; WT (and MsrA KO as control) mouse brain supernatants, IP with anti-MsrA antibody and protein-G Sepharose, 2 h room temperature then overnight 4 °C, PBS washes; Western blot with anti-Jab1
T1 sequence: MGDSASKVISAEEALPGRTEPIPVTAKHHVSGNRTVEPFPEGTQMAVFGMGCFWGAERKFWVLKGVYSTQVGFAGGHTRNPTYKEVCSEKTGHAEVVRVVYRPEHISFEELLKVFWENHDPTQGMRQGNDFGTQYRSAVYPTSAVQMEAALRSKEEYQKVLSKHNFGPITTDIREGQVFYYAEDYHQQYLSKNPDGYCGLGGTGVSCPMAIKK

Chains of the proteins cited; added tags and fusions are not shown. Lines headed by an entry give the natural chain unless they say otherwise; changes in a name come on top.
UniProt O35864: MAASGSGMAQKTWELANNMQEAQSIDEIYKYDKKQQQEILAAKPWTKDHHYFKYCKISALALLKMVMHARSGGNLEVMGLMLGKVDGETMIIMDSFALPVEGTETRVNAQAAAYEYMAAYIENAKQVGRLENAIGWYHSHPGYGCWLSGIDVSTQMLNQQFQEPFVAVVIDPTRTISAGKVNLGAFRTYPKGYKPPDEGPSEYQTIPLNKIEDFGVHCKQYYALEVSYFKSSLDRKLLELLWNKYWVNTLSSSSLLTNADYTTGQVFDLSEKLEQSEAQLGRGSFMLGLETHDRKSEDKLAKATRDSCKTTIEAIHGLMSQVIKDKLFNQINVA
UniProt P46414: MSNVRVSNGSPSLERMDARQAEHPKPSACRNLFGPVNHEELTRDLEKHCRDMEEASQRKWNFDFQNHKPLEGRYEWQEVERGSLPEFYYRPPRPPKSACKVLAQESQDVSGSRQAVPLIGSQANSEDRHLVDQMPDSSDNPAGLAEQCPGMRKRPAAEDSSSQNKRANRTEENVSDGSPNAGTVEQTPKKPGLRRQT
UniProt Q9WTX6: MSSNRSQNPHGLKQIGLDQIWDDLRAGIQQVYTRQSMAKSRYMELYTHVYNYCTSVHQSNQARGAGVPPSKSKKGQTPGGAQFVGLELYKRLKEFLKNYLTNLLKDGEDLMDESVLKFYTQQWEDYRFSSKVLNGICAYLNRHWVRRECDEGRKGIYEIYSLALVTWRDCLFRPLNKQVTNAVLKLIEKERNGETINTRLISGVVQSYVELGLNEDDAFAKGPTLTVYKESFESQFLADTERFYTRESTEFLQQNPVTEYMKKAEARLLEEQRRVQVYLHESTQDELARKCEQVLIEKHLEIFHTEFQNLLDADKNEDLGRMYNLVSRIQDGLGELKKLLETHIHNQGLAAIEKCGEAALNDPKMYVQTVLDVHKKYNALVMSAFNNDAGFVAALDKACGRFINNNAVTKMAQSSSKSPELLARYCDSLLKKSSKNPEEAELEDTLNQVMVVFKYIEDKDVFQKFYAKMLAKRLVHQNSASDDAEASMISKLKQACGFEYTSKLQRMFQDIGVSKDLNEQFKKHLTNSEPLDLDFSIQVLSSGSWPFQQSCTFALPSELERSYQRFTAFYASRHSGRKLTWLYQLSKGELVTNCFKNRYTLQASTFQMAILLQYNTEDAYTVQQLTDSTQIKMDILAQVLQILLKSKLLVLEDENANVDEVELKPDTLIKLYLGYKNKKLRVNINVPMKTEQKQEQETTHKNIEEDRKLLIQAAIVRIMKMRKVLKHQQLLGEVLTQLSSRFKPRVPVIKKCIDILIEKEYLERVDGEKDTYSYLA

[4] = target: T2, Recombinant glutathione-S-transferase-MsrA (GST-MsrA) fused protein, bovine MsrA (bovine) (UniProt P54149); assay: pull-down; Sepharose GST-MsrA or Sepharose-GST resin incubated with MsrA KO mouse brain supernatant (20 µg protein), 2 h at room temperature then overnight at 4 °C, washed with PBS; Western blot with anti-Jab1; only the target purified
T2 sequence: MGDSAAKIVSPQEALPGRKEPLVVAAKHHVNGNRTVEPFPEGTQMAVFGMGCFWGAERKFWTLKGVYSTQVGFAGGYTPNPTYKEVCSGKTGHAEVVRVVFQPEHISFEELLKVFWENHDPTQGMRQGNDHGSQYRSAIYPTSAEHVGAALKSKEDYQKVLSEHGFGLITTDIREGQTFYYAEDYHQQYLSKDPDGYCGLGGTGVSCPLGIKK

[5] = target: Cyclin-dependent kinase inhibitor 1B (P27), endogenous in mouse brain (mouse (endogenous in mouse brain)) (UniProt P46414); assay: co-IP; MsrA KO mouse brain extract (500 µg protein), IP with anti-P27 antibody; Western blot with anti-Jab1

| binding [1] | binding [2] | binding [3] | binding [4] | Substance | binding [5] |
| --- | --- | --- | --- | --- | --- |
| binds |  |  |  | Neddylated Cullin-1 (100-kDa neddylated Cul-1), endogenous in mouse brain (from UniProt Q9WTX6 1-776; P29595 1-76) |  |
|  | binds | binds | binds | c-Jun activation domain-binding protein-1 (Jab1/CSN5), endogenous in mouse brain (from UniProt O35864 1-334) | no binding (condition: brain extract of MsrA KO mice) |
